Reference: article PMC6556028
Results are given in words; binding and its absence hold for the method and conditions named. Binding seen in cells or lysates may run through a third protein. Some results given as binding are weak or reduced against the parent protein; the word gives no strength. For some of these results: Tags and fused reporters may be left off the sequences shown.

Protein sequences, listed by entry. Tags and fused reporters are not part of them.
UniProt P49841: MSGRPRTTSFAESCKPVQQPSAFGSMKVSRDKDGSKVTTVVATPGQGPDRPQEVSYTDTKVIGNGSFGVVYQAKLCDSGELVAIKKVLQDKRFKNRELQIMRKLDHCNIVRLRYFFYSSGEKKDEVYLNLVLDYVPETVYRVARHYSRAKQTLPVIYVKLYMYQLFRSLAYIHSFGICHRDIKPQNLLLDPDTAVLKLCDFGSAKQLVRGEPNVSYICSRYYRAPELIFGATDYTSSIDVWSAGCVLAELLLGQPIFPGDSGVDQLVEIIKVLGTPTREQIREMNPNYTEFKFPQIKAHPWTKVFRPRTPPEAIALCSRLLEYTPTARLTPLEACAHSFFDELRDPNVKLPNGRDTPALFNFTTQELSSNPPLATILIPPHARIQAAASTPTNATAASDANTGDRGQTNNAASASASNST
UniProt P35222: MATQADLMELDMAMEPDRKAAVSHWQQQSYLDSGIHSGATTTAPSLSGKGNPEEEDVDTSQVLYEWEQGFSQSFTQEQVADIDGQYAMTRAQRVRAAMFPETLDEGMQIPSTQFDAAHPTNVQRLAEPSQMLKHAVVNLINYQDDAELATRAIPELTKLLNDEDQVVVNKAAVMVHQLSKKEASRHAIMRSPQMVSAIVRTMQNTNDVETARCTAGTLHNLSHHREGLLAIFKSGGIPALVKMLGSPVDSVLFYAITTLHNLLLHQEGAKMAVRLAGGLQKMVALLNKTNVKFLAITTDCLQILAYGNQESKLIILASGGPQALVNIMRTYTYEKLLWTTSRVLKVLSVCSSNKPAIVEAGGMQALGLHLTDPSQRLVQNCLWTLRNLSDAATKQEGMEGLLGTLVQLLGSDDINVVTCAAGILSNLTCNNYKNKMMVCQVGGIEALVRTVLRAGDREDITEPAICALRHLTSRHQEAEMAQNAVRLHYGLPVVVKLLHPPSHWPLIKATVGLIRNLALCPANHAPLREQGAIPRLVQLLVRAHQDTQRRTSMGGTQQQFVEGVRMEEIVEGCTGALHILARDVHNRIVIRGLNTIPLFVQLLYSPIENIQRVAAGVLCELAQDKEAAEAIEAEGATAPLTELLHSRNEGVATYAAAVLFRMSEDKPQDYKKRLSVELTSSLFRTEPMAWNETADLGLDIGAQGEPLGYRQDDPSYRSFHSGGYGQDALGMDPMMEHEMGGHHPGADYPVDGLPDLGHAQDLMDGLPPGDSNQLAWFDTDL
UniProt O15169: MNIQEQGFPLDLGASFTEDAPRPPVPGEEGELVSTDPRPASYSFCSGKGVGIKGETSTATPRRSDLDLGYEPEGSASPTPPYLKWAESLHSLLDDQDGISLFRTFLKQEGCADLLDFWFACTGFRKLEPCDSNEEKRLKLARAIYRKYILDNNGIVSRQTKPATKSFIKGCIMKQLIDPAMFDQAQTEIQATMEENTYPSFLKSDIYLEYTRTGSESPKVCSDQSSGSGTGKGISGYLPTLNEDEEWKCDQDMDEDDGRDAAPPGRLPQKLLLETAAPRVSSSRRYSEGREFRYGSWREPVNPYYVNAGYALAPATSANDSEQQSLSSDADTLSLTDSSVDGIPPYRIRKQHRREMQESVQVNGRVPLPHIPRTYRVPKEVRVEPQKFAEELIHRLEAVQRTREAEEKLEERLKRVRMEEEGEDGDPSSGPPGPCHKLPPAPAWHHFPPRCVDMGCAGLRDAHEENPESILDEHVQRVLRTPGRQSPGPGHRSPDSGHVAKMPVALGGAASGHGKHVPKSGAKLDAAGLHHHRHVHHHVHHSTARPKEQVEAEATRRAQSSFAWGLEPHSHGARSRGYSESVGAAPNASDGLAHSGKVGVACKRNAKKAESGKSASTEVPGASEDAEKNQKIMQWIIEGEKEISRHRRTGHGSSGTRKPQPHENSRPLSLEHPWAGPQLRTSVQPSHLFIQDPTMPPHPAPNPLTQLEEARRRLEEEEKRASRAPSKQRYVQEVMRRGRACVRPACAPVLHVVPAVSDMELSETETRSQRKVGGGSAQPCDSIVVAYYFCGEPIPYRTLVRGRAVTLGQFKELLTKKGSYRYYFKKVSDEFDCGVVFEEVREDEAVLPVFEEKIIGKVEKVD
UniProt Q9NQB0: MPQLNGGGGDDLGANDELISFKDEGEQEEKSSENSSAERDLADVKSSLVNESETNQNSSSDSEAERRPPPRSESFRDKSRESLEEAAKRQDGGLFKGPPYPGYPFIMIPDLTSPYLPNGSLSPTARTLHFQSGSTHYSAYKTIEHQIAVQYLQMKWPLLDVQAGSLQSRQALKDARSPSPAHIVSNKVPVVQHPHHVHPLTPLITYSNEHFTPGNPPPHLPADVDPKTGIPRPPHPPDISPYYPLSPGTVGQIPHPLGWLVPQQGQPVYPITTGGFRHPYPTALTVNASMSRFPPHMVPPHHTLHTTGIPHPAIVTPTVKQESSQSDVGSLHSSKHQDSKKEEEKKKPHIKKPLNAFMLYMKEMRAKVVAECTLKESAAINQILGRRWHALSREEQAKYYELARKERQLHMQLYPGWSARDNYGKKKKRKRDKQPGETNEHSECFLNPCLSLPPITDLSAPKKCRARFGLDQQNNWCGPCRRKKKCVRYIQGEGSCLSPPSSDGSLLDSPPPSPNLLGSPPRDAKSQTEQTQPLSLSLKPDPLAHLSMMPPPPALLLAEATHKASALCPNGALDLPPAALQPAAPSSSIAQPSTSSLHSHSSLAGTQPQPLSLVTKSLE

Legend:
[1] = target: T1, Nek2B (NIMA-related kinase 2, spliced isomer B), endogenous (human (endogenous in Hs578T)) (UniProt P51955); experiment: co-IP; endogenous proteins of Hs578T cell lysate; lysate incubated 4 h at 4 °C with antibody (Nek2B antibody in Fig. 7a) and protein A/G beads, washed with low salt lysis buffer, immunoblot
T1 sequence: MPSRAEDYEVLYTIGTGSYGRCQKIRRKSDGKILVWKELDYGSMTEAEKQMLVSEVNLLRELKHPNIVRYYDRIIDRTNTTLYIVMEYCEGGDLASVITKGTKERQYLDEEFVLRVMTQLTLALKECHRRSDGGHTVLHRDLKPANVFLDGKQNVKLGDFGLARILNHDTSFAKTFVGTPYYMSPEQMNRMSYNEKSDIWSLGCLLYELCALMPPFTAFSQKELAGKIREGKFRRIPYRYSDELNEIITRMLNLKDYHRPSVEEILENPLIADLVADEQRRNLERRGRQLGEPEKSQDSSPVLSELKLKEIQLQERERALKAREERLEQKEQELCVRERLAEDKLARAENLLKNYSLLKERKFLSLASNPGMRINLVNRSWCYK

FLAG-Nek2B = target: T2, FLAG-Nek2B (UniProt P51955); experiment: co-IP; Hs578T cells transfected with HA-β-catenin and FLAG-Nek2B; FLAG tag used to precipitate Nek2B (anti-FLAG agarose, 4 h at 4 °C), immunoblot for β-catenin
T2 sequence: T1 sequence

[2] = target: T1, Nek2B (NIMA-related kinase 2, spliced isomer B), endogenous (human (endogenous in Hs578T)); experiment: co-IP; nuclear and cytoplasmic fractions of Hs578T cells (nucleoplasmic separation, NE-PER reagents), endogenous proteins; precipitating antibody not stated

| binding [1] | binding (FLAG-Nek2B) | binding [2] | Substance |
| --- | --- | --- | --- |
| no binding | – | – | GSK3β, endogenous (from UniProt P49841 1-420) (enzyme) |
| binds | – | binds | β-catenin, endogenous (from UniProt P35222 1-781) |

More lines, now with the values behind:

| Substance | binding [1] | binding (FLAG-Nek2B) | binding [2] |
| --- | --- | --- | --- |
| Axin l, endogenous (from UniProt O15169 1-862) | no binding | – | – |
| HA-β-catenin (from UniProt P35222 1-781) | – | binds | – |
| TCF4, endogenous (from UniProt Q9NQB0 1-619) | binds | – | binds |
